Measured values published in PubChem BioAssay AID588855 (National Center for Advancing Translational Sciences (NCATS), 2011).
Several values for one entry are separate records, joined by “and”; a condition that tells them apart may be missing. Identical values can stand only once. Screen size: about 410,000 compounds; about 5,000 (1.2%) were called active. Inconclusive means that the source gave no clear call. Such entries were picked first, then a sample of the others. The call rests on the fitted dose curve; in most records, active means well fitted inhibition curve with a large enough effect; inconclusive means small, poorly fitted or top-dose-only effect; inactive means no such curve, though single readings can be large or run the other way. A potency beside an inconclusive call is a rough fit, not a confirmed value.

Assay: qHTS for Inhibitors of TGF-b; further: nearly all actives have a fitted effect of over 65% in size
Conditions: HepG2 CAGA-GFP TGF-b/SMAD3 reporter, GFP fluorescence, 18 h, TGF-beta stimulated, 500 pg/mL final; series mostly up to 46.1 µM
Method in brief: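 Read-out: total well GFP (ex488/em500-530) summed from mean per-cell fluorescence. Cells: HEPG2 CAGA-GFP, 1% FBS DMEM, 18 h at 37 degrees C with 500 pg/mL final TGF-beta. Unstimulated wells served as the full-inhibition control; stimulated DMSO wells = 0%.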
Potency means the concentration at half of the fitted maximal effect; tags describe the fitted curve by direction and shape.

SMILES | Potency
O=C1OCCN1C(=O)[C@H]1[C@H](c2ccc([N+](=O)[O-])cc2)C(c2ccc(F)cc2)=NN1c1ccccc1 | inconclusive: 6.31 µM [inhibitor, partial curve]
Cc1ccc(CNC(=O)C2CCN(c3nc4ccc(C)cc4[nH]3)CC2)cc1 | inconclusive: 17.8 µM [inhibitor, partial curve, poor fit]
CC1(C)CC(=O)C2=C(C1)OC(N)=C(C#N)C2C1C=CCCC1 (stereo not drawn) | inconclusive: 11.2 µM [inhibitor, partial curve, poor fit]
CN(Cc1ccccc1)C(=O)COc1cccnc1[N+](=O)[O-] | inactive
C/C(=N/NC(=O)CNC(=O)c1ccccn1)c1ccccc1 | inactive
Cc1ccc(C2NNC(=O)C2NC(=O)c2ccccc2)cc1 (stereo not drawn) | inactive
O=C(COc1ccc(C(=O)c2ccccc2)cc1)NCC1CCCCC1 | inconclusive: 35.5 µM [inhibitor, single point]
COCCNC(=O)c1c(N)n(CCC2=CCCCC2)c2nc3ccccc3nc12 | inconclusive: 14.1 µM [inhibitor, single point]
CN1C(=O)/C(=C/c2cc(N=Nc3ccccc3)ccc2O)SC1=S | inconclusive: 0.126 µM [inhibitor, full curve, poor fit]
COc1cc(C(=O)Nc2ccccc2N2CCOCC2)ccc1OCc1c(C)noc1C | inconclusive: 5.62 µM [inhibitor, single point]
O=c1[nH]ncc2c3ccccc3n(Cc3ccccc3)c12 | inactive
CC(/C=N/NC(=O)c1ccc2nc(C)[nH]c2c1)=C\c1ccccc1 | inconclusive: 25.1 µM [inhibitor, partial curve, poor fit]
CCCN1CCN(CCCNC(=O)c2cnn(-c3ccc(C)cc3)c2-n2cccc2)CC1 | inconclusive: 35.5 µM [inhibitor, partial curve, poor fit]
COc1ccc(CNC(=O)CC2C[C@H](C(=O)N(C(C)C)C(C)C)[C@@]3(C)c4[nH]c5ccccc5c4CCN3C2=O)cc1OC (stereo partly drawn) | inconclusive: 35.5 µM [inhibitor, single point]
CCc1[nH]nc2c1C1(CCN(C(=O)c3ccccc3)CC1)C(C#N)=C(N)O2 | inactive
CC(=O)c1cccc(Nc2c3c(nc4nc(-c5cccs5)nn24)CCCC3)c1 | inconclusive: 15.8 µM [inhibitor, single point]
COc1cccc2sc(Nc3nnc(-c4ccccc4Cl)o3)nc12 | inconclusive: 10 µM [inhibitor, partial curve]
CC(=O)Nc1cccc(-c2nnc(SCC(=O)c3cc([N+](=O)[O-])ccc3Br)o2)c1 | inconclusive: 6.31 µM [inhibitor, single point]
COc1cc(C)ccc1Oc1ccc([N+](=O)[O-])cc1 | inconclusive: 35.5 µM [inhibitor, single point]
CCCCC(=O)Nc1sc(C(=O)N(CC)CC)c(C)c1C(=O)OC | inconclusive: 15.8 µM [inhibitor, single point]
O=C(C[n+]1cc(Br)cc(Br)c1)c1ccc2c(c1)CCCC2 | inactive
COc1ccc(-c2noc(C(C)NC(=O)c3ccco3)n2)cc1 (stereo not drawn) | inconclusive: 3.98 µM [inhibitor, full curve, poor fit]
CSc1ccc(CN(C)CCc2ccccn2)cc1 | inconclusive: 35.5 µM [inhibitor, single point]

SMILES | Potency
COC(=O)CC1=C(C(=O)OC)C(c2ccc3c(c2Cl)OCO3)C(C#N)=C(N)O1 (stereo not drawn) | inconclusive: 3.55 µM [inhibitor, partial curve]
CCCNC(=O)CSc1nc(COc2ccccc2)nc2ccccc12 | inactive
Cc1cccc2c1-c1sc(C(=O)NCCCN3CCN(c4cccc(Cl)c4)CC3)cc1CO2 | active: 12.6 µM
COc1ccccc1NC(=O)Nc1ccc2c(c1)nnn2C | inactive
COc1cccc(Nc2nc(C(N)CCc3ccccc3)cs2)n1 (stereo not drawn) | inconclusive: 25.1 µM [inhibitor, single point]
NS(=O)(=O)c1ccc(N2N=C(c3ccccc3)CC2c2ccc(F)cc2)cc1 (stereo not drawn) | inconclusive: 35.5 µM [inhibitor, single point]
C[C@@H]1CCCCO[C@@H](CN(C)CC2CC2)[C@@H](C)CN([C@H](C)CO)C(=O)c2cc(N(C)C)ccc2O1 | inactive
Cc1ccc(C)c(NS(=O)(=O)c2c(C)nc3sccn3c2=O)c1 | inconclusive: 14.1 µM [inhibitor, single point]
Cc1ccc(OCC(=O)NN=C2c3ccccc3-c3ccccc32)cc1 | inconclusive: 2.51 µM [inhibitor, full curve, poor fit]
CN1CCN(CCCN(Cc2cccs2)C(=S)Nc2ccc(Cl)cc2)CC1 | inactive
COc1ccc(CCNc2nnc(C)c(=O)[nH]2)cc1OC | inconclusive: 0.112 µM [inhibitor, full curve, poor fit]
CC(C)c1ccc(/C=N/N2CCN(c3ccccn3)CC2)cc1 | inactive
Cc1ccc(C)c(Nc2cc(C)nc(-c3ccccc3O)n2)c1 | inconclusive: 35.5 µM [inhibitor, single point]
COc1cc([C@@H]2CC=C(C(=O)O)CN2S(=O)(=O)c2ccc(C)cc2)cc(OC)c1OC | inconclusive: 5.62 µM [inhibitor, single point]
Cc1cc(C=O)c(C)n1-c1ccc(Oc2ccc([N+](=O)[O-])cn2)cc1 | inactive
COC(=O)CC1COc2ccccc2N1C(=O)c1cccc(Cl)c1 (stereo not drawn) | inconclusive: 35.5 µM [inhibitor, single point]
O=C(c1ccc2c(=O)n3c(nc2c1)CCCCC3)N1CCN(c2ccc(F)cc2)CC1 | inactive
CC(=O)c1ccc(NC(=S)N2CCCC(C(F)(F)F)C2)cc1 (stereo not drawn) | inactive
Cc1ccc(-n2nc(C)c3c(C)cc(=O)n(CC(=O)NCc4ccc(OC(C)C)cc4)c32)cc1 | inactive
Cc1nc(Cn2c3ccc(NC(=S)NC4CCCCC4)cc3c(=O)n2C)cs1 | inactive
COc1cccc(C(=O)NC(c2ccc(Cl)cc2)c2cc(Cl)c3cccnc3c2O)c1 (stereo not drawn) | inconclusive: 0.501 µM [inhibitor, full curve, poor fit]
COc1ccc(F)cc1NC(=O)C1CCN(c2nc(-c3ccc(OC)c(OC)c3)no2)CC1 | inactive
O=C(N/N=C/c1cn(-c2ccccc2)nc1-c1cccs1)c1ccc(Cl)cc1 | inconclusive: 35.5 µM [inhibitor, single point]

SMILES | Potency
Cc1cc([N+](=O)[O-])ccc1NC(=S)NC1CCCC1 | inconclusive: 22.4 µM [inhibitor, single point]
CCN1CCN(Cc2ccc(NC(=O)c3cc(NC(=O)C(=O)c4c[nH]c5ccccc45)cc(OC)c3)cc2C(F)(F)F)CC1 | inconclusive: 11.2 µM [inhibitor, partial curve, poor fit] and inconclusive: 22.4 µM [inhibitor, single point]
Cc1nc(Nc2ccc(F)cc2)[nH]c(=O)c1CCC(C)C | inconclusive: 35.5 µM [inhibitor, single point]
CSc1ncc(C(=O)Nc2ccc(Br)cn2)c(C)n1 | inactive
COc1ccc(Cl)cc1N(CC(=O)N1CCCC1)S(=O)(=O)c1ccc(C)cc1 | inactive
O=S(=O)(NCC(c1ccco1)N1CCc2ccccc21)c1ccccc1 (stereo not drawn) | inconclusive: 35.5 µM [inhibitor, single point]
Cc1ccc(NC(=O)N2CCN(c3nnc(C)c4c(C)n(-c5ccccc5)nc34)CC2)c(Cl)c1 | inactive
CC(=O)Nc1ccc(/C=C/C(=O)c2ccc3c(c2)OCCO3)cc1 | inconclusive: 11.2 µM [inhibitor, partial curve, poor fit]
Nc1ccn(CCCNCC(c2ccccc2)c2ccccc2)c(=O)n1 | inactive
Cc1ccc2nc(NCCCO)nc(-c3ccccc3)c2c1 | inactive
COc1ccc(-c2nc(CN3CCN(Cc4ccccc4)CC3)c(C)o2)cc1 | inconclusive: 7.94 µM [inhibitor, partial curve]
CC1(C)Cc2nc3sc(C(N)=O)c(N)c3cc2CO1 | inconclusive: 6.31 µM [inhibitor, single point]
Cc1cc(C)c(Nc2cc(S(=O)(=O)O)c(N)c3c2C(=O)c2ccccc2C3=O)c(C)c1 | inconclusive: 35.5 µM [inhibitor, single point]
Cc1ccc(N2CC(C(=O)Nc3cc(S(=O)(=O)N4CCCCC4)ccc3C)CC2=O)cc1 (stereo not drawn) | inactive
CCN(CC)C(=O)CSc1nnc2[nH]c(=O)cc(C)n12 | inactive
Cc1cc(C)nc(NC(=NCCc2c[nH]c3ccccc23)NC(=O)Nc2ccccc2)n1 | inconclusive: 20 µM [inhibitor, partial curve, poor fit]
COCCCNC(=O)CCSc1ccc(Cl)cc1 | inconclusive: 35.5 µM [inhibitor, single point]
CCOc1ccc(N(CC(=O)Nc2ccc(C)c(C)c2)S(=O)(=O)c2c(C)noc2C)cc1 | inconclusive: 11.2 µM [inhibitor, partial curve]
CCOC(=O)N1CCc2c(sc(NCc3cccs3)c2C(=O)Nc2cc(OC)ccc2OC)C1 | inconclusive: 0.708 µM [inhibitor, full curve]
CCCC[C@@H]1CNCCN1CCc1cc(C(F)(F)F)cc(C(F)(F)F)c1 | inconclusive: 25.1 µM [inhibitor, single point]
CCOC(=O)c1nnn(C(CC)C(=O)Nc2c(C)cccc2C)c1C(=O)OCC (stereo not drawn) | inconclusive: 25.1 µM [inhibitor, single point]
O=C(Nc1cccn(Cc2c(Cl)cccc2Cl)c1=O)c1ccccc1Cl | inconclusive: 12.6 µM [inhibitor, partial curve, poor fit]
